We go through 54 molecules from ChEMBL document CHEMBL4888484, “Replenishing the malaria drug discovery pipeline: Screening and hit evaluation of the MMV Hit Generation Library 1 (HGL1) against asexual blood stage Plasmodium falciparum ,using a nano luciferase reporter read-out” (2022).

What is called % Inhibition is the relative decrease from the control value, in per cent.

Out of some 150,000 compounds screened, about 540 (0.36%) showed an effect of 50% or more. The list shows a part of the results.

The test relates to Plasmodium falciparum. Description: Primary screen in NF54 nanoGlo assay, in single point, at 2uM, 72h; a lower Z score goes with more inhibition. Type of test: functional, Erythrocyte. The conditions noted are these: timepoint 72 hour.
For `COc1cccc(CN2CCN3C(=O)N(Cc4ccc(C)cc4)C[C@H]3C2)n1`, the “% Inhibition” value came out at 15% and the Z score was -1.71.
For `CC[C@H](C)N(C)C(=O)Nc1ccc(Cl)cc1`, in that order: 1% and -0.12.
Regarding `COc1c[nH]c(C(=O)NCc2cccnc2)cc1=O`, the “% Inhibition” value came out at 1% and the Z score is on record as -0.2.
For the molecule `C[C@@H](C(=O)NC(N)=O)N1CCC(c2nc3c(s2)CCCC3)CC1`, the “% Inhibition” value is reported as -11% and the Z score is 1.45.
Regarding `CC(C)N1CCN(C2CCN(S(=O)(=O)c3ccccc3N)CC2)CC1`, the “% Inhibition” value is recorded as -17% and the Z score is recorded as 1.55.
Regarding `CC(C)(C)c1cn2c(n1)[C@@H](CN)CCC2`, the “% Inhibition” value was -3% and the Z score was 0.31.
For `Cc1noc(C)c1S(=O)(=O)N[C@H]1CCc2nc(N(C)C)ncc2C1`, in that order: 21% and -2.76.
As for `O=C(Nc1cccc(Br)c1)c1coc(NC(=O)c2cnccn2)n1`, the “% Inhibition” value came out at 12% and the Z score is reported as -1.58.
For `CCn1cc(C(=O)N2CCCN(CC3CCC3)CC2)nn1`, in that order: -2% and 0.21.
Turning to `O=C(NCCC1(O)CCOCC1)[C@H]1C2CCC(CC2)[C@@H]1C(F)(F)F`, the “% Inhibition” value is -4% and the Z score worked out at 0.77.
The matching figures for `O=C(NCCCc1ccccc1)N1Cc2cncnc2C1`: -16% and 2.73.
In the case of `COc1ccccc1OCCN1C[C@@H](C(=O)Nc2ccc3[nH]c(C)nc3c2)CC1=O`, the “% Inhibition” value is listed as -9% and the Z score was 1.11.
`Cc1nc2c(c(N3CCCC3)n1)CCN(C(=O)c1cc3sccc3[nH]1)C2`: the “% Inhibition” value is -6% and the Z score is listed as 1.09.
In the case of `CCCOC(=O)[C@@](C)(NC(C)=O)C1CC1`, the “% Inhibition” value was -11% and the Z score came to 2.14.
In the case of `Cc1cnccc1CNC(=O)[C@@H](C)Cn1cccn1`, the “% Inhibition” value is given as -1% and the Z score is recorded as 0.1.
For `Cc1cc(C(=O)N2CCCS2(=O)=O)c(C)n1C(C)C`, in that order: 6% and -0.66.
For `COCc1nocc1C(=O)NC[C@H]1CCC[C@@H]1O`, in that order: -9% and 0.9.
Regarding `COc1cc2c(cc1OC)CN(CC(=O)Nc1ccc(C)cc1)[C@H](C(=O)NCCc1ccccc1)C2`, the “% Inhibition” value is given as 0% and the Z score amounted to 0.04.
As for `COc1nc2c(c(C)nn2-c2ccccc2)c(C)c1CCC(=O)NCCN1CCOCC1`, the “% Inhibition” value is 0% and the Z score is recorded as 0.02.
Regarding `CCOC[C@H]1CCCN1Cc1ccn(CC)n1`, the “% Inhibition” value was found to be 1% and the Z score was -0.14.
The matching figures for `COCCNC(=O)CCc1c(-c2ccc(Cl)cc2)nc2ccc(-c3cc4ccccc4s3)cn12`: -32% and 2.8.
Turning to `CC(=O)c1ccccc1C(=O)NCCCc1ncc[nH]1`, the “% Inhibition” value is -9% and the Z score came out at 1.13.
For `COc1ccc(CNC(=O)Cc2csc(-n3nc(C)c(Cl)c3C)n2)cc1`, in that order: -1% and 0.18.
For `CCOc1ccc(C(=O)N2CCC[C@@]3(C2)NC(=O)N(Cc2ccccc2)C3=O)cc1`, the “% Inhibition” value is -9% and the Z score stood at 1.68.
Take `COC(=O)[C@@H]1C[C@@H](NC(=O)c2cccc(Cl)c2)CN1`: the “% Inhibition” value is -9% and the Z score was determined as 1.74.
The matching figures for `Cn1ncc(NC(=O)C(C)(C)Cc2ccc(O)cc2)c1C(F)F`: -5% and 0.57.
The matching figures for `CN(Cc1ccco1)C1CCN(C(=O)OC(C)(C)C)CC1`: -9% and 0.79.
As for `COc1nn(C)cc1NC(=O)N1C[C@H]2COC[C@@]2(c2ccccc2)C1`, the “% Inhibition” value was 2% and the Z score was -0.35.
The matching figures for `Cc1csc(NC(=O)c2ccc(NC(=O)N[C@H]3CCS(=O)(=O)C3)cc2)n1`: 9% and -1.11.
Take `CCCC[C@H](CC)c1nnc(NC(=O)CC(C)C)s1`: the “% Inhibition” value is on record as -2% and the Z score is given as 0.33.
In the case of `c1ccc2c(-c3nccn3CC[C@H]3CCOC3)ccnc2c1`, the “% Inhibition” value was -7% and the Z score is reported as 1.23.
For `O=C(N[C@H]1CCOc2ccccc21)c1ccco1`, in that order: -2% and 0.25.
Take `Cc1nn(-c2ncccn2)c2c1[C@@H](c1cccc(C(F)(F)F)c1)CC(=O)N2`: the “% Inhibition” value was 33% and the Z score is -3.76.
For `Cc1ccccc1CCCn1cnc(CCCO)c1`, in that order: -18% and 3.37.
Take `CN1C(=O)c2cccn2C[C@@H]1CNC(=O)c1n[nH]c2c1COc1ccccc1-2`: the “% Inhibition” value is recorded as -12% and the Z score was 2.29.
As for `Cc1cc(-c2nnc(NC(=O)COc3ccccc3F)o2)n(C)n1`, the “% Inhibition” value is on record as -10% and the Z score worked out at 1.86.
On to `O=C(Cn1cnc2ccccc2c1=O)N(C1CCCC1)[C@H]1CCS(=O)(=O)C1`, for which the “% Inhibition” value is on record as -43% and the Z score is listed as 5.08.
For the molecule `CC1CN(C(=O)Cc2noc(C3CCc4ccccc4O3)n2)CC(C)O1` (stereo not drawn), the “% Inhibition” value is reported as -3% and the Z score was found to be 0.45.
In the case of `CCO[C@H]1COC[C@@H]1NC(=O)Nc1cn(CC)nn1`, the “% Inhibition” value is given as -8% and the Z score turned out to be 1.66.
For `Cc1nc(C(=O)NCC2CCCC23NC(=O)NC3=O)c(C)s1` (stereo not drawn), the “% Inhibition” value was found to be 1% and the Z score was -0.13.
For `CC(C)(C)c1ccc(-c2noc(Cn3c(=O)n(Cc4ccccc4)c(=O)c4sccc43)n2)cc1`, in that order: -11% and 1.33.
The matching figures for `Fc1ccc(Nc2nc3c(s2)CCCC3)cc1`: 34% and -4.37.
As to `CNC(=NCc1cccc(COCc2ccccc2)c1)NC`, the “% Inhibition” value is -2% and the Z score is recorded as 0.45.
The matching figures for `c1cc(-c2nnc(-c3cccc(C4CCOC4)c3)o2)cc(C2CCOC2)c1` (stereo not drawn): -18% and 2.18.
As to `CCCCNC(=O)CN(C)C1C2CCOC2C1(C)C` (stereo not drawn), the “% Inhibition” value is listed as -8% and the Z score turned out to be 1.01.
As for `CS(=O)(=O)N(CCN1CCCCC1)C1CN(C(=O)CC2CCCC2)C1`, the “% Inhibition” value is listed as -9% and the Z score is listed as 1.19.
For `Cc1cnc(OC(C)C)c(NC(=O)c2ccsc2C(F)F)c1`, in that order: -5% and 0.84.
The matching figures for `NC(=NCCCC(=O)N1CCc2ccccc2C1)N1CCCCC1`: 0% and 0.04.
For the molecule `Cc1cc(C)c2c(c1)[C@@]1(CC(=O)Nc3c1cnn3C(C)C)C(=O)N2`, the “% Inhibition” value was -4% and the Z score came out at 0.41.
`O=C(Nc1nnc([C@H]2CC(=O)N(c3ccc(OC(F)(F)F)cc3)C2)o1)c1ccccc1`: the “% Inhibition” value is given as -2% and the Z score is recorded as 0.33.
Turning to `O=C(c1ncncc1Cl)N1CCCCCCC1`, the “% Inhibition” value stood at 35% and the Z score is on record as -3.94.
On to `COc1ccc(CN2CCn3c(n[nH]c3=O)C2)cc1Cn1nc(C)cc1C`, for which the “% Inhibition” value was -4% and the Z score came to 0.66.
In the case of `CC1(C)C[C@H](NCC2CCCCC2)[C@@]2(CCC(=O)NCc3ccco3)CC[C@](C)(O)C[C@@H]12`, the “% Inhibition” value was -13% and the Z score was determined as 1.95.
For `CCc1cccc(NC(=O)N2CC[C@H](N3CCN(C)CC3)[C@H](CCC(=O)O)C2)c1`, in that order: -5% and 0.85.
